Hit rate of the full screen: of about 310,000 compounds, about 14,000 (4.5%) showed an effect of 50% or more. The effect is printed as a negative number. Some of the results follow.
Target: human ether-à-go-go-related gene (hERG) potassium channel (human, UniProt Q12809)
Experiment: primary screen, population patch clamp on CHO cells stably expressing hERG
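Also: peak tail current of the secondary pulse compared with the same well before compound.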

human ether-à-go-go-related gene (hERG) potassium channel, sequence (Q12809 whole entry, looked up): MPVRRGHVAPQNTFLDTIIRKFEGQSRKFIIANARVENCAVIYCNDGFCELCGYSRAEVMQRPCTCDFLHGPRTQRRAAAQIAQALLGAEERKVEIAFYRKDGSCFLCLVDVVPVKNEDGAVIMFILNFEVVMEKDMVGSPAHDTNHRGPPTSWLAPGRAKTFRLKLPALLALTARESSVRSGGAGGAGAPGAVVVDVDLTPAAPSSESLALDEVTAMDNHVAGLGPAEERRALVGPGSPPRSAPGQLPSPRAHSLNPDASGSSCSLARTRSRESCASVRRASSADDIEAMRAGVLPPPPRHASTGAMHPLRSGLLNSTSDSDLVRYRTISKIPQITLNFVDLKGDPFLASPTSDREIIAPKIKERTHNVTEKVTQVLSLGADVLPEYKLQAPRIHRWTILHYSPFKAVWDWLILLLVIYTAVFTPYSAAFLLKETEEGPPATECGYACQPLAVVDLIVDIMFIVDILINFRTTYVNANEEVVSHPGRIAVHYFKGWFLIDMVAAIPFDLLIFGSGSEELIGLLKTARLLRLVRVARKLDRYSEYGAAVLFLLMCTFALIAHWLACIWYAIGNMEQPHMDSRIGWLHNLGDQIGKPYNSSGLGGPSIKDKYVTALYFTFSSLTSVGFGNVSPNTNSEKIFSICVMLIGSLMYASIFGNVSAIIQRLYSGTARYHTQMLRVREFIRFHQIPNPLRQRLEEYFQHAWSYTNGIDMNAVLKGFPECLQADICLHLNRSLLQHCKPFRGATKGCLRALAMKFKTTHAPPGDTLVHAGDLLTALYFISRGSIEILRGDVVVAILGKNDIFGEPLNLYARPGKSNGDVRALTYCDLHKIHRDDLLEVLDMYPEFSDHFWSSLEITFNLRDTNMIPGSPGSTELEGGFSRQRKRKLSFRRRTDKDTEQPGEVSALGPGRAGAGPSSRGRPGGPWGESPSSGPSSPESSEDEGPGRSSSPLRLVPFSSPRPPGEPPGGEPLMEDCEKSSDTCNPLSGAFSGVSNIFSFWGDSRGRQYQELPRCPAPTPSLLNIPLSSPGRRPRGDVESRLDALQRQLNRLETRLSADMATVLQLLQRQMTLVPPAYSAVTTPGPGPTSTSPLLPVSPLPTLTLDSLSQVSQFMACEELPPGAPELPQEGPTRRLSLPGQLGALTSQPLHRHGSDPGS

Point of comparison: `O=C(CN1CCN(c2ccccc2)CC1)Nc1ccccc1C(F)(F)F`, “hERG current change (%, negative = inhibition) at 10uM” value -16%. Against it:
- CC1C(=O)OC(c2ccc(Br)cc2)C(C)(C)C1=O (stereo not drawn) — higher, 10.3%
- COc1ccc(C(=O)NCCC2=CCCCC2)cc1[N+](=O)[O-] — lower, -25.8%
- O=C(c1cc(-c2ccncc2)nc2ccccc12)N1CCN(c2ccccn2)CC1 — lower, -63.5%
- NC(=O)c1ccccc1NC(=O)/C=C/c1ccc(Cl)cc1 — higher, 1.13%
- CN1CCc2c1nc1ccccc1c2N.O=C(O)c1cc([N+](=O)[O-])ccc1Cl — higher, -9.41%
- COc1ccc(S(=O)(=O)N(C)c2ccc(C(N)=O)cc2)cc1 — lower, -16.9%
- COC(=O)c1cccc(N2C(=O)c3ccccc3S2(=O)=O)c1 — higher, -9.36%
- COc1ccc(C(=O)Nc2ccccc2C)cc1S(=O)(=O)N1CCOCC1 — higher, 2.73%
- CCCCCCNC(=O)CCc1nc2cccnc2n1Cc1ccc(OC)cc1 — lower, -63.6%
- O=C(O)C1C2C=CC3(O2)C1C(=O)N1c2ccccc2COC13 (stereo not drawn) — higher, 18.8%
- O=C(Nc1c2c(nn1-c1ccccc1)CS(=O)(=O)C2)c1cc2ccccc2o1 — lower, -20.1%
- NC(=O)c1ccccc1OCc1nnc(-c2ccccc2Br)o1 — higher, -8.34%
- O=C1CSC(=Nc2cc(Cl)ccc2Cl)N1 — higher, -0.496%
- CC(=O)c1cccc(NC(=O)COC(=O)c2ccc3c(c2)OCO3)c1 — higher, 12.4%
- CCOc1ccc(-n2c(SCC(N)=O)nc3sc4c(c3c2=O)CCN(C)C4)cc1 — higher, 12.4%
- COC(=O)c1cncc(C)c1 — higher, 8.06%
- COc1ccc(NC(=O)Cn2nc(Cc3cccnc3)c3ccccc3c2=O)cc1OC — higher, -10.2%
- Cc1ccc(C(=O)NCCc2nnc3ccc(SCC(=O)Nc4cc(C)on4)nn23)cc1 — higher, -5.41%
- COc1cc(C(=O)NCC(c2ccco2)N2CCc3ccccc32)cc(OC)c1OC (stereo not drawn) — higher, -6.64%
- CN(C)c1ccc(NC(=O)C(=O)NCCOc2ccccc2)cc1 — higher, 20.7%
- O=C(CSc1nnc(-c2ccccn2)n1-c1ccccc1)Nc1ccc2c(c1)OCO2 — higher, 1.81%
- CC1CCc2c(nc3ncnn3c2N2CCN(c3ccccc3F)CC2)C1 (stereo not drawn) — lower, -24.5%
- CC(C(=O)N1CCc2ccccc2C1)N(c1ccccc1)S(C)(=O)=O (stereo not drawn) — higher, 12.4%
- O=C(CN1C(=O)C2C3c4ccccc4C(c4ccccc43)C2C1=O)Nc1cccc(C(=O)O)c1 (stereo not drawn) — higher, -10.3%
- O=[N+]([O-])c1cccc(/C=N/Nc2nnc(-c3ccccc3)c(-c3ccccc3)n2)c1 — higher, 8.57%
- Cc1ccccc1C(=O)Nc1ccc(N(C)C)c2ccccc12 — higher, -7.47%
- CC(C)c1ccc(CN(C)CC(O)c2ccccc2)cc1.O=C(O)C(=O)O (stereo not drawn) — lower, -18.9%
- COc1ccc2c(c1)C1(Nc3ccccc3-c3nc4ccccc4n31)C(=O)N2 (stereo not drawn) — higher, -3.02%
- Fc1ccc(-n2c(=S)[nH]c3cccnc32)cc1 — higher, 26%
- O=C1CCCC(O)=C1N=Nc1cccc(C(=O)O)c1 — higher, 21.4%
- O=C(O)c1ccccc1C(=O)Nc1ccc(S(=O)(=O)Nc2nccs2)cc1 — higher, 4.83%
- O=C(Oc1ccc2ccccc2c1)c1ccccc1 — higher, -7.81%
- Cc1ccc(NS(=O)(=O)c2c(C(=O)N3CCCCCC3)c(C)n(C)c2C)c(C)c1 — higher, 1.82%
- COc1ccc([C@@H]2COc3c(ccc4c3C=CC(C)(C)O4)C2)c(OC)c1 — higher, 16.2%
- O=C(OCc1ccc([N+](=O)[O-])cc1)C1CC(=O)N(c2ccccc2)C1 (stereo not drawn) — lower, -69.1%
- Cc1ccc(C(=O)NNC(=O)CCC(=O)Nc2cccc(Cl)c2C)cc1 — higher, -13.2%
- CC(C)(C)OC(=O)CC12CCCCC1NC(=O)O2 (stereo not drawn) — higher, 18.5%
- CCOC(=O)C1CCN(C(=O)c2ccc(Br)o2)CC1 — higher, 1.5%
- COc1ccc(C(=O)C[n+]2cccc(C)c2C)cc1[N+](=O)[O-].[Br-] — higher, -13.2%
- CCN1CCN(c2ncnc3scc(-c4ccc(C)cc4)c23)CC1 — lower, -22.5%
- S=C(NCc1ccccn1)Nc1ccccc1Cl — higher, 8.2%
- Cc1ccc(S(=O)(=O)n2ccc3c(OCCOCCSCC(NC(=O)OC(C)(C)C)C(=O)O)cccc32)cc1 (stereo not drawn) — higher, 14.1%
- O=C(O)CC1=C(c2ccc(F)cc2)CCC1=O — higher, 22.9%
- CC1=C(C(=O)OC2CCCCC2)C(c2ccccc2)NC(=O)N1 (stereo not drawn) — higher, 10.1%
- COc1cccc(NC(=O)CN(C)C(=O)c2cc(-c3ccc(C)o3)nc3ccccc23)c1 — higher, -13.9%
- COc1ccc(OC)c(N=C2SCCCN2C(=O)c2ccc(N3C(=O)CCC3=O)cc2)c1 — higher, -3.31%
- CCCCCN(C(=O)CCC(=O)OCC(=O)N(C)Cc1ccccc1C)c1c(N)n(CCCC)c(=O)[nH]c1=O — higher, 11.3%
- COc1ccc(C(=O)OCC(=O)c2c[nH]c3ccccc23)cc1OC — higher, 16.6%
- O=C(N/N=C/c1cccs1)c1cncc(Br)c1 — higher, -10.1%
- Cc1scc(C(=O)Nc2ccon2)c1-c1ccccc1 — higher, 0.994%
- O=C(NNC(=S)Nc1ccc(Cl)cc1Cl)c1cccnc1 — higher, 8.1%
- COc1cccc(S(=O)(=O)NCc2ccc(C(=O)NCc3ccccn3)cc2)c1 — lower, -24.4%
- Cc1cc(=O)oc2ccc(OC(C)C(=O)O)cc12 (stereo not drawn) — higher, 7.86%
- CCOC(=O)c1sc(NC(=O)C(C)(C)C)cc1C — higher, 16%
- O=C(CSCC(=O)N1CCOCC1)Nc1ccccc1 — higher, -0.115%
- O=C(Nc1ccc(C(O)(C(F)(F)F)C(F)(F)F)cc1)c1ccc(Cl)c([N+](=O)[O-])c1 — lower, -27.9%
- C/C(=C\C(=O)c1ccc(F)cc1)Nc1ccc(N2CCOCC2)cc1 — higher, 7.37%
- COc1cc(CNCC(O)c2ccccc2)ccc1OCc1ccc(Cl)nc1.Cl (stereo not drawn) — lower, -35.1%
- COc1ccc(C(c2c(C)[nH]n(C(N)=S)c2=O)C(C#N)C#N)cc1 (stereo not drawn) — higher, 16.3%
- COc1ccc(CN(C)CC(=O)Nc2sc3c(c2C#N)CCC3)c(OC)c1 — lower, -23.5%
- Cn1c(SCC(=O)Nc2ccccc2F)nc2c(c1=O)SCC2 — higher, -9.41%
- COc1ccc(S(=O)(=O)N(NC2=NS(=O)(=O)c3ccccc32)C(=O)C(C)C)cc1 — higher, 7.43%
- Cc1ccc(S(=O)(=O)Nc2cccc(-c3ccc4nncn4n3)c2)cc1 — higher, 8.78%
- COc1ccc(NS(=O)(=O)CC(C)C)c(OC)c1 — higher, -0.778%
- O=C(OCCN1CCCC1=O)c1cncc(Br)c1 — higher, 1.65%
- O=C(COC(=O)c1ccc(OC(F)F)cc1)NC(=O)NC1CCCC1 — higher, -4.6%
- Cc1cc2cc(CNC(=O)C(C)Oc3ccccc3)ccc2n1C (stereo not drawn) — higher, -6.3%
- CN1CCN(CCC(=O)OC2CC3CCC(C2)N3C)CC1.Cl (stereo not drawn) — higher, 3.31%
- O=C(c1cccc(F)c1)N1CCN(c2ccc([N+](=O)[O-])c3cccnc23)CC1 — lower, -66.1%
- Clc1ccc(CNc2nnnn2-c2ccccc2)c(Cl)c1 — higher, 20.7%
- CCc1ccccc1N(C)S(=O)(=O)c1ccc2[nH]cc(C(=O)O)c(=O)c2c1 — higher, 10.1%
- Cc1ccc(C(=O)NNC(=O)C2CCCN(c3ncccn3)C2)cc1 (stereo not drawn) — higher, 10.4%
- CCN(C(=O)CCS(=O)(=O)c1ccc2c(c1)oc(=O)n2C)c1ccc(OC)cc1 — higher, -6.48%
- CCOC(=O)C1=C(C)NC(=O)NC1c1ccccc1 (stereo not drawn) — higher, 4.61%
- c1ccc(Cc2nnc(Sc3ccccc3)c3ccccc23)cc1 — higher, 0.319%
- CC(Sc1n[nH]c(-c2ccccc2)n1)C(=O)c1c(N)n(C)c(=O)n(C)c1=O (stereo not drawn) — higher, -0.132%
- COCCNC(=O)c1ccc2c(c1)nc(C)n2-c1cccc(F)c1 — higher, -3.05%
- CCCNC(=O)CCC(NS(=O)(=O)c1ccc(C)cc1)C(=O)NCCC (stereo not drawn) — higher, -0.00172%
- COc1cccc(Nc2c([N+](=O)[O-])cncc2[N+](=O)[O-])c1 — higher, -2.64%
- O=C(COC(=O)c1ccncc1)Nc1cccc(Cl)c1 — higher, 4.67%
- Cl.Cn1nnnc1SCCNCc1cccc2ccccc12 — higher, -10.4%
- COc1ccc(C2=NCC(CSc3nnc(-c4ccc5c(c4)OCO5)o3)S2)cc1 (stereo not drawn) — higher, 4.27%
- COCCCn1cc(C(=O)c2cc(OC)ccc2OCC(=O)Nc2cc(C)on2)cc(C#N)c1=O — lower, -53%
- O=C(Nn1cnnc1)C1Cc2ccccc2CN1S(=O)(=O)c1ccc(F)cc1 (stereo not drawn) — higher, -4.33%
- Cc1cc2ccccc2n1CCNCc1c(C(=O)N2CCOCC2)nc2ccccn12 — higher, -7.39%
- COC(=O)[C@@H]1C[C@H]1[C@@H](NC(=O)c1cc(C)on1)c1ccccc1 — higher, -1.58%

From publication PMC4336329 (PLoS ONE, 2015)
